# The other results are listed elsewhere or left out. At the low end of the ranking the order means little.
# Molecular target: SIX1 homeodomain (reference allele) (UniProt Q15475)
# Experiment: universal protein binding microarray
# Settings: Universal all-10-mer PBM (8x60K, AMADID 030236), 300 nM GST-tagged protein, Alexa Fluor 488 anti-GST; buffer, salt, pH and temperature not stated; high values mean tight binding; most listed sequences are background and not binding sites; double strand, one strand shown
row,Sequence,binding signal [E-score]
1,CCCTAAGG,-0.0545
2,CGTCTTTA,0.0316
3,CACCGCTC,0.0873
4,CGAGATAG,0.085
5,ACCACCGT,-0.0519
6,ACACTGTG,-0.00611
7,GATATTAC,0.319
8,CATGGTGA,0.225
9,CTCGTAAC,-0.0545
10,TACTCGGA,0.162
11,AGTTGGGG,0.102
12,AAGACTCC,-0.324
13,AAGCTCAG,-0.207
14,AATGCGAG,-0.0242
15,TCAGGGCA,-0.0105
16,AAGCAGCG,-0.0895
17,AGCAAGAT,0.0758
18,AATTCGCC,-0.156
19,ATCCGACA,0.35
20,AAATTTTA,-0.127
21,ACTCGCGA,0.0221
22,AGGTATTA,0.385

row,Sequence,binding signal [E-score]
1,CGCGCGAC,-0.0865
2,AAAGAGAT,0.0667
3,CGTGAGTC,-0.176
4,ATCATGGG,0.17
5,TACCCCAA,0.174
6,CCCCGGAG,0.128
7,CTTGATGA,0.0224
8,AGAGTATC,0.465
9,ATCCTAGG,0.238
10,ATCTCGTG,0.209
11,ATCCAGCC,0.182
12,AACCCCCT,0.107
13,AGCATCAC,-0.0036
14,ACCCGCAG,0.0626
15,GAACCACC,-0.0411
16,AATGGAAT,-0.125
17,TCTCGGAA,-0.00352
18,GACCCGGC,0.183
19,GTAAGCTA,0.129
20,CTCATATA,0.253
21,GATCAGGC,0.289
22,AATGCGGC,-0.193

row,Sequence,binding signal [E-score]
1,AGCGGAAA,-0.326
2,CGACTGTC,-0.178
3,AAGCCGAA,0.0384
4,AGTGCCAA,-0.244
5,CCCCGAAC,-0.0242
6,GTCTCCAA,0.0309
7,CTTCGCAA,-0.218
8,AGCGATAG,0.209
9,AAACCCAA,-0.0527
10,GAAGGCCC,-0.29
11,ATGGCCGC,-0.345
12,TCCGCGGA,0.0925
13,AAATTGAT,0.00287
14,GCTGTGCC,-0.0618
15,AGTGTGGA,0.0119
16,CTCCAGCC,-0.158
17,CGTAACGA,-0.141
18,CCCCCTAC,0.0383
19,TCTTCAAA,-0.243
20,AGCCGTAG,0.133
21,CGTTCGCA,-0.127
22,GGTAATTA,-0.0538

row,Sequence,binding signal [E-score]
1,ACGAAAGC,-0.142
2,TCCATACA,0.166
3,AACTGATC,0.286
4,ACTCTTAG,-0.104
5,CGCCTCAG,0.017
6,GCGTTCAA,-0.105
7,CTGCGCCC,-0.264
8,CGAGGACA,0.105
9,CATCCTAG,0.0586
10,ATAGTGAC,-0.0934
11,TAATCGTA,0.0626
12,CCATACCA,0.13
13,AACACATC,-0.186
14,GGGAATCA,-0.0594
15,CAGTGGGG,-0.0568
16,CCTTTGCA,-0.181
17,ACGCAAGA,0.0856
18,CTAATTCC,-0.0614
19,GTCGGAGA,0.0326
20,CCTGGTGC,-0.0854
21,AAGGTGGT,-0.0124
22,CAGCGAAC,-0.136

row,Sequence,binding signal [E-score]
1,AAACGGGA,0.0602
2,CTAGTCCA,-0.303
3,TAGTCACA,-0.115
4,CACCGCCA,0.0939
5,AATTGGCT,-0.0937
6,AGGCACCG,-0.147
7,CGGAGAAG,0.0186
8,CCAAGCGA,-0.0413
9,ACTATGAG,0.092
10,GATACCTA,0.472
11,GGGCTAAA,0.0101
12,AAATCTGA,0.106
13,CGCCGGCA,-0.0464
14,AAAAAACT,-0.212
15,TATTTCCA,0.0541
16,GAGCTAGC,-0.0927
17,AGGGAGCA,-0.0806
18,CGAGCTTC,-0.167
19,AACGCCGA,-0.0112
20,AGAGGGCA,-0.179
21,GGTCTGGA,0.00504
